Experimental data taken from paper PMC4336329 (PLoS ONE, 2015).
In all, about 310,000 compounds went through this assay and about 14,000 (4.5%) showed an effect of 50% or more. Effects have a minus sign here. The list shows a part of the results.

Molecular target: human ether-à-go-go-related gene (hERG) potassium channel (human, UniProt Q12809)
Assay: primary screen, population patch clamp on CHO cells stably expressing hERG
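Further: peak tail current of the secondary pulse compared with the same well before compound.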

human ether-à-go-go-related gene (hERG) potassium channel, sequence (Q12809 whole entry, looked up): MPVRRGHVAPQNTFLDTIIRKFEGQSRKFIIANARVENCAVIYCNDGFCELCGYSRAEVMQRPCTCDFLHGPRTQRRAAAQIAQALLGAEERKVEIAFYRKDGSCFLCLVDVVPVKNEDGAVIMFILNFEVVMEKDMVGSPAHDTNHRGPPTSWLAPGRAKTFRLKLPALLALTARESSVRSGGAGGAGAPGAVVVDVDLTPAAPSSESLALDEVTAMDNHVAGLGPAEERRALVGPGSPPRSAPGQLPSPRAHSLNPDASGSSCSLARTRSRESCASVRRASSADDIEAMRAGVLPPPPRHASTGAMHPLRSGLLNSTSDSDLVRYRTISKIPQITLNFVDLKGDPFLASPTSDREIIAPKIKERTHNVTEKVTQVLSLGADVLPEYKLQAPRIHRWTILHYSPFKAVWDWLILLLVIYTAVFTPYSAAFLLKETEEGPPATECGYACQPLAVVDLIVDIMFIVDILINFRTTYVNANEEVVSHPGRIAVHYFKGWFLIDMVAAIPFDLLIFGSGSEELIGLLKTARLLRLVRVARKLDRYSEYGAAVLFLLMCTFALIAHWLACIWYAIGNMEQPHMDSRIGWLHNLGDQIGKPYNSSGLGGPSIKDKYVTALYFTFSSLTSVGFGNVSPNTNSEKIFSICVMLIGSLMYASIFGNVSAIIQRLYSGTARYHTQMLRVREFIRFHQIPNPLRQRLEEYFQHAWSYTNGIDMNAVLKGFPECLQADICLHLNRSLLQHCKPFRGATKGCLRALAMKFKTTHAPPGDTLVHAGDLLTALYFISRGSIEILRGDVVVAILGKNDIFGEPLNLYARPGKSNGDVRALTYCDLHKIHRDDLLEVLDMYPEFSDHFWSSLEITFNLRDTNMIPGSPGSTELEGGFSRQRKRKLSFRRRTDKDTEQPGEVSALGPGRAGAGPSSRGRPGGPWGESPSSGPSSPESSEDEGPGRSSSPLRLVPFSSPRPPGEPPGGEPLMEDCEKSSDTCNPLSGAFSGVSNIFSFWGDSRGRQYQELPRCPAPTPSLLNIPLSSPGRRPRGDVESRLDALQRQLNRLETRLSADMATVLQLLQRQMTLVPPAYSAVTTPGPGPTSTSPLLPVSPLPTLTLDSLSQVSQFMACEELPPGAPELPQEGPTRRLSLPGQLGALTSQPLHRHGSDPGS

Compound | hERG current change (%, negative = inhibition) at 10uM [%]
O=c1cc(-c2ccccc2)nc(SCCOc2ccccc2Cl)[nH]1 | 21.5
CCN(CC)S(=O)(=O)c1cccc(-c2nnc(SC(C)C#N)n2Cc2ccccc2)c1 (centres unmarked) | -7.34
CCCCCc1nnc(NC(=O)CN2C(=O)C3CCCCC3C2=O)s1 (centres unmarked) | -7.75
CN(CC(=O)Nc1c(Cl)cccc1Cl)C(=O)c1ccccc1-c1nc2ccccc2s1 | -15.1
Cl.c1ccc2c(c1)CC(N1CCCCC1)c1ccccc1S2 (centres unmarked) | 9.15
Cc1cc(C(=O)CSc2nncs2)c(C)n1-c1c(C)n(C)n(-c2ccccc2)c1=O | 10.7
CCCCCc1ccc(-c2ccc(/C=C/C(=O)O)cc2)nc1 | 0.61
C=CC[N+]1(C)C2CCC1CC(O)C2.[Br-] (centres unmarked) | 2.77
CSc1nsc2nc(=O)c(/C=C3\C(C)=Nc4ccc(C)cc43)c(N)n12 | 18.1
CC1CCN(Cc2ccc(-c3nnn(CC(=O)NC4CCCCC4)n3)cc2)CC1 | -6.52
CCOc1ccc(N(C(C)=O)C2C=CS(=O)(=O)C2)cc1 (centres unmarked) | -1.74
CCN(CC(=O)NCc1cccs1)C(=O)c1ccc(S(=O)(=O)Nc2ccccc2F)cc1 | -21.4
Cc1c(C(=O)N2CCN(c3ccccc3)CC2)sc2ncnc(N3CCC(C)CC3)c12 | -29.9
COc1ccc(N2CCN(S(=O)(=O)c3ccc(OC)cc3)CC2)cc1 | 5.01
COc1ccc(C2=NOC(Cn3nc(C(=O)NCc4ccco4)cc3-c3ccccc3)C2)cc1 (centres unmarked) | -68.2
CCCCC12CN3CC(C)(CN(C1)C3c1ccc([N+](=O)[O-])o1)C2=O (centres unmarked) | -49.5
O=C(Nc1cccnc1)c1c(O)c2c(n(Cc3ccccc3)c1=O)CCCC2 | 2.61
CC(=O)NC(Cc1cccc(F)c1)C(=O)NC1CCN(c2ncccc2[N+](=O)[O-])CC1 (centres unmarked) | 19.7
COC(=O)C1=C(c2ccc(F)cc2F)C[C@@H]2CC[C@H]1N2C(=O)NCCOc1ccc(OC)cc1 | -14

Compound | hERG current change (%, negative = inhibition) at 10uM [%]
CC(Oc1ccc2ccccc2c1)C(=O)NNC(=O)Nc1ccccc1F (centres unmarked) | 19.5
CCCCCNC(=O)c1c[nH]c2ccc(S(=O)(=O)N3CCC4(CC3)OCCO4)cc2c1=O | 9.75
O=C(Nc1ccc(F)c(S(=O)(=O)N2CCOCC2)c1)C1CCCCC1 | 5.03
CCCc1ccc(Oc2cc(Cl)nc(N)n2)cc1 | -6.28
Cc1ccc(OCCCC(=O)NNC(=O)c2ccncc2)cc1 | -0.766
CC(CN1CCCC1)OC(=O)c1ccc(Br)cc1.Cl (centres unmarked) | -25.2
COc1ccc(OC)c(C2CC(=O)c3c([nH]c(C(=O)OCC4CCCO4)c3C)C2)c1 (centres unmarked) | 3.54
COc1ccc(NC(=O)Nc2ccc3nsnc3c2)cc1 | 2.7
CC(=O)N1N=C2C3CCN(CC3)C2C1c1ccc(F)cc1 (centres unmarked) | 1.27
N#C/C(=C\c1ccc(OCC(N)=O)cc1)C(=O)NC1CC1 | 1.35
CC(Oc1ccccc1)C(=O)N1CCCc2ccccc21 (centres unmarked) | -12.6
COC(=O)c1ccc(C(=O)N2CCCC(N3CCN(c4ccccc4)CC3)C2)nc1 (centres unmarked) | -22.4
O=C(NCc1ccc(F)cc1)N1CCN(S(=O)(=O)c2ccccc2F)CC1 | 9.1
Cc1cccc(N2CCN(C(=O)c3cc(=O)[nH]c4ccccc34)CC2)c1C | -15.1
O=C(NCC(F)(F)F)Nc1ncccn1 | 17.1
Cn1nnnc1SCC(=O)Nc1ccccc1C(=O)NC1CC1 | 7.04
Cc1cc(S(=O)(=O)N2CCCc3ccccc32)ccc1-n1cnnn1 | -7
COc1ccc(CCNC(=O)COc2ccc3c(C)cc(=O)oc3c2)cc1OC | 13.7
O=C(CCc1c[nH]c2ccccc12)NCCc1ccccc1 | 8.67

Compound | hERG current change (%, negative = inhibition) at 10uM [%]
Cn1c(=N)c(S(=O)(=O)c2ccc(F)cc2)cc2c(=O)n3ccccc3nc21 | 1.33
Cc1c(C)c2ccc(OCC(=O)N3CCOCC3)c(C)c2oc1=O | -20.3
CCc1ccc(CNC(=O)C2CCC(=O)N(CCc3ccc(Cl)cc3)C2)nc1 (centres unmarked) | -67
CCOc1ccc(-n2cnc3sc(C)c(C)c3c2=O)cc1 | 23.8
Cc1cc(SC(C)C(=O)NCC(=O)Nc2ccc(F)c(F)c2F)nc2ccccc12 (centres unmarked) | 0.057
COc1ccc(CCc2nnc(CCC(=O)NCc3cnn(-c4ccccc4C)c3)o2)cc1 | 0.419
O=C(NC1CCN(Cc2ccccc2)CC1)c1ccccc1 | -33.3
COC(=O)/C(=C/c1ccccc1)NC(=O)c1ccco1 | 4.23
O=C(COc1ccccc1)N=C1SC2CS(=O)(=O)CC2N1c1ccc(F)cc1F (centres unmarked) | 16.1
CCOC(=O)CSc1ncc(-c2ccccc2)nn1 | -6.58
CC1CCN(C(=O)CSc2nnc(Cc3ccccc3)o2)CC1 | -12.2
COc1cccc(C2/C(=C(/O)c3ccc(C)cc3)C(=O)C(=O)N2Cc2ccco2)c1 (centres unmarked) | 3.57
COc1c(-c2ccc([N+](=O)[O-])cc2[N+](=O)[O-])c(=O)n(C)c(=O)n1C | 13.6
Cc1ccc(O)c(/C=N/NC(=O)c2[nH]ncc2Br)c1 | 15.3
CCOC(=O)C(C)Sc1nnc(Cn2c(=O)sc3ccccc32)n1-c1ccccc1 (centres unmarked) | -14
CCOc1ccc(NC(=O)c2cc3n(n2)C(C(F)(F)F)CC(c2ccco2)N3)cc1 (centres unmarked) | 22.5
COc1ccccc1Nc1ncc(C(C)=O)c(C)n1 | 10.9
NS(=O)(=O)c1ccc(CNC(=O)CCS(=O)(=O)Cc2ccccc2)cc1 | 2.83
